Measurements as given in the supplement of paper PMC10126150.
Sequences with one replicate were seen in a single cluster, so their values are uncertain.

Test system: ATP
Experiment: switch fluorescence ratio, 500 uM ATP over buffer (Cy3 cluster intensity, sum of 5 cycles each) (fold (ratio)); higher = stronger signal-on switching upon ATP binding; sequences stand for … in TCGTCGGCAGCGTCAGATGTGTATAAGAGACAGTTTTTTTTTTTTTTTTTTTTTTTTT…TC
Settings: aptamer strand: ATP DNA aptamer (quencher-CACCTGGGGGAGTATTGCGGAGGAAGG + anchor), 100 nM annealed; ATP concentration: 500 uM; one replicate
Outline: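 Cy3-labelled switching-strand clusters on a modified Illumina MiSeq flow-cell were annealed to 100 nM quencher-labelled ATP aptamer, imaged in selection buffer, then imaged after 15 min with 500 uM ATP at 22 °C. Five buffer/ATP cycles ran, with NaOH stripping and re-annealing between them. The fluorescence ratio is summed target-cycle over summed buffer-cycle Cy3 intensity per cluster, averaged per switch-domain sequence. Clusters outside 100-1000 RFU were excluded.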
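Note: ATP exposure 15 min at 22 °C before imaging.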

| Sequence | switch fluorescence ratio |
| --- | --- |
| TCGTTTACTG | 0.957 |
| TCGTTTCCAT | 1.03 |
| TCGTTTGAGG | 0.975 |
| TCGTTTTTG | 1.01 |
| TCTAAAACTC | 0.961 |
| TCTAAAAGTT | 1.03 |
| TCTAAGTAAG | 1.06 |
| TCTAAGTATC | 1.02 |
| TCTAAGTGAA | 1.02 |
| TCTAATGTG | 1.01 |
| TCTACACTTA | 1.04 |
| TCTACATAAA | 1.01 |
| TCTACGGGCC | 1.04 |
| TCTACTTAAA | 1.01 |
| TCTAGAGTT | 1.04 |
| TCTAGCCTCG | 0.986 |
| TCTAGGGAGG | 1.02 |
| TCTAGGGTTT | 1.01 |
| TCTAGTCTTT | 1 |
| TCTAGTTTTG | 0.996 |
| TCTATCCAAT | 1.06 |
| TCTATCGTTT | 0.984 |
| TCTATGAACG | 0.96 |
| TCTATGCACT | 1.06 |
| TCTATGGGTT | 1.02 |

| Sequence | switch fluorescence ratio |
| --- | --- |
| TCTATGGTCA | 0.983 |
| TCTATTAGGG | 0.949 |
| TCTATTGGGG | 0.971 |
| TCTCAACGAA | 1.02 |
| TCTCAATGTG | 1.03 |
| TCTCACAATG | 1.18 |
| TCTCATCGCA | 1.09 |
| TCTCCACCTA | 1.16 |
| TCTCCGTTTG | 2.04 |
| TCTCCTGTAA | 2.56 |
| TCTCCTTAG | 1.01 |
| TCTCGATCCA | 1.05 |
| TCTCGGCCCC | 1.07 |
| TCTCGGCCGC | 1.08 |
| TCTCGGCGGG | 0.975 |
| TCTCGGGAAA | 1.04 |
| TCTCGGGCGG | 0.988 |
| TCTCGGGGGC | 1.02 |
| TCTCTAAAAG | 1.01 |
| TCTCTAAGCG | 0.976 |
| TCTCTAATAT | 1.04 |
| TCTCTGAAGC | 1.16 |
| TCTCTTAATG | 1.02 |
| TCTCTTAT | 1 |
| TCTGAACGTT | 1.05 |

| Sequence | switch fluorescence ratio |
| --- | --- |
| TCTGAAGAGA | 1.02 |
| TCTGAATTTT | 1.02 |
| TCTGACGGGA | 2.19 |
| TCTGACGTTT | 1.02 |
| TCTGATGATA | 1.01 |
| TCTGCACCAA | 1.19 |
| TCTGCACCGG | 1.01 |
| TCTGCAGCC | 1.95 |
| TCTGCCCGAG | 0.994 |
| TCTGCTGATT | 0.997 |
| TCTGGAAAGA | 0.962 |
| TCTGGCAAGT | 0.982 |
| TCTGGCCCAT | 1.02 |
| TCTGGCCGGA | 1.04 |
| TCTGGCGTTT | 0.996 |
| TCTGGGCGGC | 1.01 |
| TCTGGGCTAC | 3.77 |
| TCTGGGGAAA | 1.22 |
| TCTGGTTAGG | 1.03 |
| TCTGTAGATG | 1.04 |
| TCTGTATG | 0.981 |
| TCTGTTCTTC | 1.02 |
| TCTGTTTGGA | 0.964 |
| TCTGTTTGGC | 0.94 |
| TCTTAAAGGC | 1.05 |

| Sequence | switch fluorescence ratio |
| --- | --- |
| TCTTAATTTG | 1.01 |
| TCTTACAAC | 0.972 |
| TCTTACTTGC | 1.01 |
| TCTTATCTC | 0.988 |
| TCTTATTACC | 1.03 |
| TCTTCACCAA | 1.19 |
| TCTTCAGTGT | 1.02 |
| TCTTCATTTA | 1.03 |
| TCTTCGACCT | 1.23 |
| TCTTCGAGAC | 1.3 |
| TCTTCTGATT | 0.983 |
| TCTTCTGGGT | 0.954 |
| TCTTCTTCTT | 0.969 |
| TCTTCTTTCG | 1.14 |
| TCTTGAACAT | 0.996 |
| TCTTGAGATG | 1.01 |
| TCTTGATGTA | 1 |
| TCTTGGTCTG | 1 |
| TCTTGTGCCG | 0.961 |
| TCTTTACTTG | 1.01 |
| TCTTTAGGTC | 0.972 |
| TCTTTATAGC | 1.03 |
| TCTTTCATCG | 1.08 |
| TCTTTCCCCG | 1.16 |
| TCTTTCGACG | 1.8 |
